In the supplement of paper PMC11417369:
This is one part of the list.

system: PfHDP1 homeodomain (GST-tagged); experiment: gcPBM binding intensity (ln(normalized median fluorescence intensity)); higher = stronger DNA binding
Outline: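 GST-fused DNA-binding domains of P. falciparum, expressed in E. coli, were applied at about 25 μg on average for 1 h to an Agilent 4 × 180k array of primer-extended double-stranded 36-bp intergenic genomic probes and negative controls. Binding intensity is the highest Masliner-normalised natural-log median intensity across replicate spots of either probe orientation, measured with Alexa488 anti-GST antibody and a 488 nm scan.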

Sequence | gcPBM binding intensity (ln)
AGTATACACAAACACACACACACAAAAAAAAAAAAA [CACACA_site8036] | 6.6
TTTTTTAAAAAACAAACACACACGTAGAAAAAAAAA [CACACA_site826] | 6.84
TAATTATATGGATACACACACATACATTTACATAAC [CACACA_site5744] | 6.88
TATATACCTATATATACACACAAATACATAAGCTTC [CACACA_site1369] | 6.64
AAATATTTTTTAATGTGTACATAGAACATATATATA [XGTACX_site3136] | 6.59
ATAATATATATATTATGTACATATAAATTTTTTTTT [XGTACX_site5826] | 6.39
GATATGATTAACTTATGTTATTCTTGATGATTACGT [CACACA_negctrl_site354] | 6.25
AATATATTTATATATAGTACTTTTATAATATCGTTT [XGTACX_site6658] | 6.06
AATACACATAATACATGTACTCACATTGTTATAACA [XGTACX_site4129] | 7.11
TTTTTTATTTATTGTTATACATCTTACTACTTATAA [GTGCAC_negctrl_site381] | 6.63
TACGTTATATACAACTGTACTTGGATAATTATTAAC [XGTACX_site5614] | 6.63
TACAAATTAATATGTACACACAAATATAAATATGTA [CACACA_site7016] | 6.3
TTTTCTTTTTTGAACTGTACGCGTAAATTTAAAAAG [XGTACX_site882] | 6.36
AAGTTTTTTTCTTTTTTTCTCTCTTTTTTTTTTTTT [XGTACX_negctrl_site613] | 5.75
TTTTTTTATTTTTGTTGTACTTATAATTCTGTAAAA [XGTACX_site7344] | 6.7
TATAAATATAAATACACACACACACGCCAAAGCGTA [CACACA_site6181] | 6.61
CTTTTTTTTTTAAATAGTACTTTCTCGTATACTCAT [XGTACX_site1842] | 6.41
TGTGAAATAAAATTTATACACACTTGCTAAATGATC [CACACA_site181] | 6.48
AAGAAAAATGTGTTTTTTTTTTTTTTTTTTTTCAAT [TGCATGCA_negctrl_site404] | 5.87
ATAAGAAGAAGAAAAACACACATATGTAAATATATA [CACACA_site3138] | 6.84
ATATTATAGATATACACACACACATGCATGCACATA [CACACA_site6203] | 9.82
TAATTAAATATTTCAGTGCATTATTTTATGATCCAT [GTGCAC_site9456] | 10.1

Sequence | gcPBM binding intensity (ln)
AGATGAACTAAAAAGGTGCTAAATATGTGACCACTG [GTGCAC_site9406] | 6.56
TTTTTTTTAGTATGAACACACATATAGATTATAAAA [CACACA_site7391] | 6.32
TACATACACAGACACACACACATATAAATATAAATA [CACACA_site7641] | 7.18
ATTTAGAATGTTCCTACACACCAAATTTAAGTGTGC [CACACA_site7161] | 6.66
ATTAATTTAATTTGAATTATTTTATTATATTATTAT [XGTACX_negctrl_site10] | 6.2
GTTTGAATATATCAGGTGCATTTATAATTCATATGA | 9.12
TATATATCTTTATGCACACACAAAGAAAATTTTCCT [CACACA_site7366] | 10.5
AAGAATATAATCTTCACACATATATATATATATATA [CACACA_site5927] | 9.47
AAGGACAACAAACAAACACACACAAAAAAAAAATAA [CACACA_site9263] | 6.65
TTATTATTAAAACACACACACAAAAAAAAAAAAAAA [CACACA_site1480] | 6.43
AAAAAAAAAAAAAAAACACACATGTATAATATAATA [CACACA_site2209] | 6.8
TACACCTGCACGATTGCACACAAATATGTTTTGAAG [CACACA_site8656] | 9.74
TATAGATGTGGTTTATGTACATACTATAAAAAATCA [XGTACX_site1400] | 6.54
TTATATATATATATATAATATATATATATTTAAATA [XGTACX_negctrl_site453] | 6.49
GTATAATATTCATATTCACACATTAAAATATATTTA [CACACA_site4879] | 6.47
TAAAAATATATTATATGTACGTATAACAATGTATGA [XGTACX_site8606] | 6.73
ACCTAATATTATTAAACATGCACATTTGCATAAATA [TGCATGCA_site870] | 10.1
CAAAATGAAAGGAAAAGTACATTTAAATGAATAAAT [XGTACX_site8241] | 6.57
AAATAATTCAAAAAAACACACAAATTACAAAATAAA [CACACA_site269] | 6.68
GCAAAATAAAGAAGCACACAAAAATGAAATATATAT [CACACA_site3651] | 6.77
CATATTTATAAATATAAACACACAACATTATATGCA [CACACA_site9065] | 6.82
TTTAATTAATAATAATATAAATTGTTCTTTTTTTTT [GTGCAC_negctrl_site176] | 5.72

Sequence | gcPBM binding intensity (ln)
ACTAGTAAATTTATATGTACATATATATATATATAG [XGTACX_site2502] | 6.86
TCTTGGTATATTCAATATATGATTTATATAATTCAA [CACACA_negctrl_site818] | 6.36
AAAAAAAATACATACATACACACATATATATATATA [CACACA_site912] | 9.29
ATTTATATATATCATACACACTAATATGTATATTAT [CACACA_site5816] | 6.72
TATACGTAATAATATGCACACAAATAAACTTTATAA [CACACA_site9166] | 9.59
TGATAACTAAATACATGTACAAATTAAAAAGAAAAA [XGTACX_site3080] | 6.28
TAATGATTATATGACTGTACATTTGTAGGTATAATT [XGTACX_site3373] | 6.4
TTATTTTTTTCAACAAGTACTAATACAAAATAAAAC [XGTACX_site6460] | 6.66
GATTAAATCGATAATACACACTAAATGTAAAACATT [CACACA_site4248] | 6.28
TTGTATTATTAAATTATAAAACCTATAATTATGGAT [GTGCAC_negctrl_site340] | 6.2
ATCTTTCGAACATGTACACACAGAAAAAAAAAAAAA [CACACA_site5393] | 6.36
TTATATGCATCCAAAAAGGAATGTTTTTAGAGAATC [CACACA_negctrl_site1062] | 6.21
TAAAAAGTATATGGTCGTACACTTTTGATTAATACA [XGTACX_site7804] | 6.02
GTGTAGGCAAAAAGTTGTACGCCTAAAATCTATATA [XGTACX_site8912] | 5.97
GTACATATAAATATTACACACATTTTCATTTTTAAC [CACACA_site1986] | 6.8
AAATCGAACAAATTATGTACTAAAAAAAAAATTTAT [XGTACX_site6399] | 6.1
AATAATTTGAAGGTGATAGTATTACATGGGAAATCA [CACACA_negctrl_site301] | 6.36
ACTCTCTTATATTAAACACACATATATATATGTATA [CACACA_site2703] | 7.05
TCAAACAAAAAAGAAACACACACTAATTAAATTTTC [CACACA_site1101] | 6.2
TTTCCTTATAAAAATACACACAAACTTTCATTAAAA [CACACA_site5953] | 6.52
TCATATTATTATATATGTACATACCAATATATTATA [XGTACX_site2988] | 6.49
TAGATATGTCTAAAAAGTACTTTCTATAACAATTCT [XGTACX_site6678] | 6.28

Sequence | gcPBM binding intensity (ln)
AGAGGGGAAAACATGATGCACTAGTATAACCAAGAA | 8.51
AACACCAAACAAAGGTGTACATATAGGAAAAAATCT [XGTACX_site1006] | 6.55
TATCACATATTATGATGTACAAAGATTCTGACTAAT [XGTACX_site2770] | 6.14
TACACGCAGAAACACACACACACACCCATATATATA [CACACA_site637] | 7.14
TAGATAAAATTAAAATGTACAAACCTTTTCCCTTAT [XGTACX_site1136] | 5.97
ATATATATATATGATACATGCATATATTTTTTCTTC [TGCATGCA_site216] | 8.93
TATATATATATAAAGGTGCATATCTTTACGTATGTC [GTGCAC_site9665] | 9.23
ATTTTATTTTTTAATAGTACTCATTTTTTATGTGAA [XGTACX_site5494] | 6.48
TTTTTTTTATCAAATTGTACATATACAAAGGTGATC [XGTACX_site8054] | 6.32
ATATATATATATATATGTACTTATTTATTTTATATA [XGTACX_site8810] | 9.21
AGAGAAGAAAACAAAACACACACATATATCTTAATA [CACACA_site8699] | 6.86
CCCAATAATTAAACAACACACATATATATCTGTAAT [CACACA_site5667] | 6.99
AGGGGCGAAACAAAGGTGCTTTTATAAAATATGTAA | 6.55
ATAAAATGGGCAAACACACACAAAAAAAAGATATAT [CACACA_site1648] | 7.41
AGAAATCATCTGAATTGTACTAACAATTTTTTTTAA [XGTACX_site6191] | 5.88
TATTATAATAAAATATGTACACACATACACACATAT [XGTACX_site2360] | 7.07
CTTAAATCTACTATTTGTACATATTTTATTATTAAA [XGTACX_site6151] | 6.38
AGCATATATTAAACATGTACATAAATATATTATATA [XGTACX_site1451] | 6.39
TGTTATATATATACAAACATACACATTTATAAACAA [TGCATGCA_negctrl_site235] | 6.73
TATTAATTTCTTTTTTCTCATCACTTTCAAAATGAA [CACACA_negctrl_site1055] | 6.35
TTATGATCATTTATATGTACACATAATTTTTGTGCT [XGTACX_site5568] | 6.7
GTTCAAATTCTTATACCTTTTTATTGAGCCATAATA [CACACA_negctrl_site210] | 6.73
